From the supplement of paper PMC8512760
The list shows a part of the results. Most values come without repeats; read them as rough.

Columns and labels:
Assay in all cases: cell viability relative to vehicle (% of vehicle); basal-like triple-negative breast cancer lines; higher = less cytotoxic
Conditions in all cases: 10 µM; 72 h
HCC-1143 = system: HCC-1143
HCC-1187 = system: HCC-1187
MDA-468 = system: MDA-468
SUM-149 = system: SUM-149
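Further: stably firefly luciferase-GFP labeled cells in 96-well plates, viability read as luciferase photon flux after d-luciferin addition, treated wells normalized to vehicle wells, single-dose high-throughput screen.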

Row | Compound | cell viability (HCC-1143) | cell viability (HCC-1187) | cell viability (MDA-468) | cell viability (SUM-149)
1 | CCCS(=O)c1ccc2nc(NC(=O)OC)[nH]c2c1 (stereo not given) [Albendazole Oxide] | 77 | 53.8 | 117 | 168
2 | C=C1c2cccc(O)c2C(O)=C2C(=O)C3(O)C(O)=C(C(N)=O)C(=O)C(N(C)C)C3C(O)C12.Cl (stereo not given) [Methacycline HCl] | 121 | 100 | 104 | 105
3 | CC(=O)OCC(=O)C1(O)CCC2C3CCC4=CC(=O)CCC4(C)C3C(=O)CC21C (stereo not given) [Cortisone acetate] | 78.8 | 79.3 | 109 | 101
4 | CCS(=O)(=O)CCn1c([N+](=O)[O-])cnc1C [Tinidazole] | 98.3 | 78.6 | 104 | 106
5 | CN(C)c1ccc(O)c2c1CC1CC3C(N(C)C)C(=O)C(C(N)=O)=C(O)C3(O)C(=O)C1=C2O.Cl (stereo not given) [Minocycline HCl] | 116 | 107 | 81.9 | 48
6 | CC(O)C1C(=O)N2C(C(=O)O)=C(SC3CNC(CNS(N)(=O)=O)C3)C(C)C12 (stereo not given) [Doripenem] | 77.4 | 86.1 | 113 | 109
7 | CC#CC1(O)CCC2C3CCC4=CC(=O)CCC4=C3C(c3ccc(N(C)C)cc3)CC21C (stereo not given) [Mifepristone] | 54.8 | 96.6 | 55.1 | 101
8 | CC(=O)OCC(=O)[C@@]12N=C(C)O[C@@H]1C[C@H]1[C@@H]3CCC4=CC(=O)C=C[C@]4(C)[C@H]3[C@@H](O)C[C@@]12C [Deflazacort] | 77.4 | 80.3 | 167 | 137
9 | CS(=O)(=O)CCNCc1ccc(-c2ccc3ncnc(Nc4ccc(OCc5cccc(F)c5)c(Cl)c4)c3c2)o1 [Lapatinib] | 95.6 | 77.3 | 80.1 | 115
10 | CC(CCC(=O)O)C1CCC2C3C(O)CC4CC(O)CCC4(C)C3CC(O)C12C (stereo not given) [Cholic acid] | 78.6 | 70.2 | 119 | 125
11 | CC(c1cc2ccccc2s1)N(O)C(N)=O (stereo not given) [Zileuton] | 82.1 | 123 | 95.5 | 104
12 | CC(O)C(=O)O.CC(O)C(=O)O.CN1CCN(c2ccc3c(c2)NC(=C2C(=O)N=c4cccc(F)c4=C2N)N3)CC1 [Dovitinib Dilactic acid] | 41.8 | 38.3 | 44.4 | 37.8
13 | COc1cc(C(=O)NS(=O)(=O)c2ccccc2C)ccc1Cc1cn(C)c2ccc(NC(=O)OC3CCCC3)cc12 [Zafirlukast] | 93.4 | 109 | 93 | 88
14 | C=C1C(=CC=C2CCCC3(C)C2CCC3C(C)C=CC(C)C(C)C)CC(O)CC1O (stereo not given) [Doxercalciferol] | 94.3 | 186 | 83 | 78.4
15 | Cc1cc(Nc2ncc(Cl)c(Nc3ccccc3S(=O)(=O)C(C)C)n2)c(OC(C)C)cc1C1CCNCC1 | 20 | 22.3 | 18.3 | 32
16 | CN(CCOc1ccc(NS(C)(=O)=O)cc1)CCc1ccc(NS(C)(=O)=O)cc1 [Dofetilide] | 79.8 | 93.4 | 104 | 106
17 | CCOC(=O)NC1CCC2C(C1)CC1C(=O)OC(C)C1C2C=Cc1ccc(-c2cccc(F)c2)cn1 (stereo not given) [Vorapaxar] | 80.7 | 83.8 | 114 | 107
18 | COc1cc(C)c(C=CC(C)=CC=CC(C)=CC(=O)O)c(C)c1C [Acitretin] | 88.2 | 102 | 80.8 | 93
19 | CCOC(=O)OC1(C(=O)OCCl)CCC2C3CCC4=CC(=O)C=CC4(C)C3C(O)CC21C (stereo not given) [Loteprednol etabonate] | 121 | 129 | 135 | 159
20 | COc1ccccc1Oc1c(NS(=O)(=O)c2ccc(C(C)(C)C)cc2)nc(-c2ncccn2)nc1OCCO.O [Bosentan Hydrate] | 76.4 | 87.2 | 91.9 | 106
21 | Cc1onc(-c2ccccc2)c1C(=O)NC1C(=O)N2C1SC(C)(C)C2C(=O)[O-].O.[Na+] (stereo not given) [Oxacillin sodium monohydrate] | 116 | 101 | 100 | 106
22 | CN1C2CCC1CC(OC(c1ccccc1)c1ccccc1)C2.CS(=O)(=O)O (stereo not given) [Benztropine mesylate] | 97.6 | 102 | 110 | 99.5
23 | C=C[C@@H]1C[N@@]2CC[C@H]1C[C@@H]2[C@H](O)c1ccnc2ccc(OC)cc12 [Quinidine] | 77 | 83 | 119 | 115
24 | NCC1OC(OC2C(N)CC(N)C(OC3OC(CO)C(O)C(N)C3O)C2O)C(N)CC1O (stereo not given) [Tobramycin] | 69.5 | 93.4 | 110 | 99.3
25 | O=C1CCc2cc(OCCCCc3nnnn3C3CCCCC3)ccc2N1 [Cilostazol] | 90.9 | 72.6 | 86 | 113
